{
  "source": "the supplement of paper PMC8728848",
  "assay_in_all_cases": "glycan array binding signal (z-score within array); higher = stronger binding",
  "settings_in_all_cases": "glycan notation: IUPAC condensed, linker removed",
  "key": {"[1]": {"molecular_target": "Neu5Ac(a2-3)Gal(b1-4)GlcNAc", "outline": "(§1)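 The Consortium for Functional Glycomics database supplied 3228 glycan arrays, of which those lacking an available protein sequence were dropped. The binding signal, a within-array Z-score, was averaged across arrays of the same protein sequence and across linkers. Negative scores can be read as non-binding.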"}, "[2]": {"molecular_target": "Neu5Ac(a2-3)Gal(b1-4)GlcNAc(b1-3)Gal(b1-4)GlcNAc", "outline": "as §1"}, "[3]": {"molecular_target": "Neu5Ac(a2-3)Gal(b1-4)GlcNAc(b1-3)Gal(b1-4)GlcNAc(b1-3)Gal(b1-4)GlcNAc", "outline": "as §1"}, "[4]": {"molecular_target": "Neu5Ac(a2-3)Gal(b1-4)GlcNAc(b1-3)Gal(b1-4)[Fuc(a1-3)]GlcNAc", "outline": "as §1"}, "[5]": {"molecular_target": "Neu5Ac(a2-3)Gal(b1-4)GlcNAc6S", "outline": "as §1"}, "[6]": {"molecular_target": "Neu5Ac(a2-3)Gal(b1-4)[Fuc(a1-3)]GlcNAc", "outline": "as §1"}, "[7]": {"molecular_target": "Neu5Ac(a2-3)Gal(b1-4)[Fuc(a1-3)]GlcNAc(b1-3)Gal", "outline": "as §1"}, "[8]": {"molecular_target": "Neu5Ac(a2-3)Gal(b1-4)[Fuc(a1-3)]GlcNAc(b1-3)Gal(b1-4)GlcNAc", "outline": "as §1"}, "[9]": {"molecular_target": "Neu5Ac(a2-3)Gal(b1-4)[Fuc(a1-3)]GlcNAc(b1-3)Gal(b1-4)[Fuc(a1-3)]GlcNAc(b1-3)Gal(b1-4)[Fuc(a1-3)]GlcNAc", "outline": "as §1"}, "[10]": {"molecular_target": "Neu5Ac(a2-3)Gal(b1-4)[Fuc(a1-3)]GlcNAc6S", "outline": "as §1"}, "[11]": {"molecular_target": "Neu5Ac(a2-3)Gal6S(b1-4)GlcNAc", "outline": "as §1"}, "[12]": {"molecular_target": "Neu5Ac(a2-3)Gal6S(b1-4)[Fuc(a1-3)]GlcNAc", "outline": "as §1"}, "Neu5Ac(a2-3)GalNAc": {"molecular_target": "Neu5Ac(a2-3)GalNAc", "outline": "as §1"}, "[13]": {"molecular_target": "Neu5Ac(a2-3)GalNAc(b1-4)GlcNAc", "outline": "as §1"}, "[14]": {"molecular_target": "Neu5Ac(a2-3)[GalNAc(b1-4)]Gal(b1-4)Glc", "outline": "as §1"}, "[15]": {"molecular_target": "Neu5Ac(a2-3)[GalNAc(b1-4)]Gal(b1-4)GlcNAc", "outline": "as §1"}, "[16]": {"molecular_target": "Neu5Ac(a2-3)[Neu5Ac(a2-6)]GalNAc", "outline": "as §1"}, "[17]": {"molecular_target": "Neu5Ac(a2-6)Gal(b1-4)GlcNAc", "outline": "as §1"}, "[18]": {"molecular_target": "Neu5Ac(a2-6)Gal(b1-4)GlcNAc(b1-2)Man(a1-3)[Neu5Ac(a2-6)Gal(b1-4)GlcNAc(b1-2)Man(a1-6)]Man(b1-4)GlcNAc(b1-4)GlcNAc", "outline": "as §1"}, "[19]": {"molecular_target": "Neu5Ac(a2-6)Gal(b1-4)GlcNAc(b1-3)Gal(b1-4)GlcNAc", "outline": "as §1"}, "[20]": {"molecular_target": "Neu5Ac(a2-6)Gal(b1-4)GlcNAc(b1-3)Gal(b1-4)[Fuc(a1-3)]GlcNAc(b1-3)Gal(b1-4)[Fuc(a1-3)]GlcNAc", "outline": "as §1"}, "[21]": {"molecular_target": "Neu5Ac(a2-6)Gal(b1-4)GlcNAc6S", "outline": "as §1"}, "Neu5Ac(a2-6)GalNAc": {"molecular_target": "Neu5Ac(a2-6)GalNAc", "outline": "as §1"}, "[22]": {"molecular_target": "Neu5Ac(a2-6)GalNAc(b1-4)GlcNAc", "outline": "as §1"}, "Neu5Ac(a2-8)Neu5Ac": {"molecular_target": "Neu5Ac(a2-8)Neu5Ac", "outline": "as §1"}, "[23]": {"molecular_target": "Neu5Ac(a2-8)Neu5Ac(a2-3)Gal(b1-4)Glc", "outline": "as §1"}, "[24]": {"molecular_target": "Neu5Ac(a2-8)Neu5Ac(a2-3)[GalNAc(b1-4)]Gal(b1-4)Glc", "outline": "as §1"}, "[25]": {"molecular_target": "Neu5Ac(a2-8)Neu5Ac(a2-8)Neu5Ac", "outline": "as §1"}, "[26]": {"molecular_target": "Neu5Ac(a2-8)Neu5Ac(a2-8)Neu5Ac(a2-3)Gal(b1-4)Glc", "outline": "as §1"}, "[27]": {"molecular_target": "Neu5Ac(a2-8)Neu5Ac(a2-8)Neu5Ac(a2-3)[GalNAc(b1-4)]Gal(b1-4)Glc", "outline": "as §1"}, "[28]": {"molecular_target": "Neu5Ac(a2-8)Neu5Ac(a2-8)Neu5Ac(a2-8)Neu5Ac(a2-3)[GalNAc(b1-4)]Gal(b1-4)Glc", "outline": "as §1"}, "[29]": {"molecular_target": "Neu5Ac9Ac(a2-6)Gal(b1-4)GlcNAc", "outline": "as §1"}, "[30]": {"molecular_target": "Neu5Gc(a2-3)Gal(b1-3)GlcNAc", "outline": "as §1"}, "[31]": {"molecular_target": "Neu5Gc(a2-3)Gal(b1-3)[Fuc(a1-4)]GlcNAc", "outline": "as §1"}, "Neu5Gc(a2-3)Gal(b1-4)Glc": {"molecular_target": "Neu5Gc(a2-3)Gal(b1-4)Glc", "outline": "as §1"}, "[32]": {"molecular_target": "Neu5Gc(a2-3)Gal(b1-4)GlcNAc", "outline": "as §1"}, "[33]": {"molecular_target": "Neu5Gc(a2-3)Gal(b1-4)[Fuc(a1-4)]GlcNAc", "outline": "as §1"}, "[34]": {"molecular_target": "Neu5Gc(a2-6)Gal(b1-4)GlcNAc", "outline": "as §1"}, "Neu5Gc(a2-6)GalNAc": {"molecular_target": "Neu5Gc(a2-6)GalNAc", "outline": "as §1"}},
  "note": "This is one part of the list.",
  "data": [
    {"binder": "NakA (Mycobacterium tuberculosum) (protein) SVVKPTKVTVFSPDGGADNPGEADLAIDGNPATSWKTDIYTDPVPFPSFKNGVGLMLQLPQATVVGTVAIDVASTGTKVEIRSASTPTPATLEDTAVLTSATALRPGHNTISVEAAAPTSNLLVWISTLGTTDGKSQADISEITIYAASD", "values": [
      {"measurement": "glycan array binding signal (z-score)", "setting": "[1]", "result": -0.471},
      {"measurement": "glycan array binding signal (z-score)", "setting": "[2]", "result": -0.599},
      {"measurement": "glycan array binding signal (z-score)", "setting": "[3]", "result": -0.596},
      {"measurement": "glycan array binding signal (z-score)", "setting": "[4]", "result": -0.467},
      {"measurement": "glycan array binding signal (z-score)", "setting": "[5]", "result": -0.408},
      {"measurement": "glycan array binding signal (z-score)", "setting": "[6]", "result": -0.418},
      {"measurement": "glycan array binding signal (z-score)", "setting": "[7]", "result": -0.315},
      {"measurement": "glycan array binding signal (z-score)", "setting": "[8]", "result": -0.085},
      {"measurement": "glycan array binding signal (z-score)", "setting": "[9]", "result": -0.405},
      {"measurement": "glycan array binding signal (z-score)", "setting": "[10]", "result": -0.545},
      {"measurement": "glycan array binding signal (z-score)", "setting": "[11]", "result": -0.541},
      {"measurement": "glycan array binding signal (z-score)", "setting": "[12]", "result": -0.346},
      {"measurement": "glycan array binding signal (z-score)", "setting": "Neu5Ac(a2-3)GalNAc", "result": -0.666},
      {"measurement": "glycan array binding signal (z-score)", "setting": "[13]", "result": -0.649},
      {"measurement": "glycan array binding signal (z-score)", "setting": "[14]", "result": -0.601},
      {"measurement": "glycan array binding signal (z-score)", "setting": "[15]", "result": -0.309},
      {"measurement": "glycan array binding signal (z-score)", "setting": "[16]", "result": -0.641},
      {"measurement": "glycan array binding signal (z-score)", "setting": "[17]", "result": -0.439},
      {"measurement": "glycan array binding signal (z-score)", "setting": "[18]", "result": -0.479},
      {"measurement": "glycan array binding signal (z-score)", "setting": "[19]", "result": -0.501},
      {"measurement": "glycan array binding signal (z-score)", "setting": "[20]", "result": -0.484},
      {"measurement": "glycan array binding signal (z-score)", "setting": "[21]", "result": -0.628},
      {"measurement": "glycan array binding signal (z-score)", "setting": "Neu5Ac(a2-6)GalNAc", "result": -0.54},
      {"measurement": "glycan array binding signal (z-score)", "setting": "[22]", "result": -0.48},
      {"measurement": "glycan array binding signal (z-score)", "setting": "Neu5Ac(a2-8)Neu5Ac", "result": -0.242},
      {"measurement": "glycan array binding signal (z-score)", "setting": "[23]", "result": -0.189},
      {"measurement": "glycan array binding signal (z-score)", "setting": "[24]", "result": -0.598},
      {"measurement": "glycan array binding signal (z-score)", "setting": "[25]", "result": -0.501},
      {"measurement": "glycan array binding signal (z-score)", "setting": "[26]", "result": -0.19},
      {"measurement": "glycan array binding signal (z-score)", "setting": "[27]", "result": -0.632},
      {"measurement": "glycan array binding signal (z-score)", "setting": "[28]", "result": -0.581},
      {"measurement": "glycan array binding signal (z-score)", "setting": "[29]", "result": -0.459},
      {"measurement": "glycan array binding signal (z-score)", "setting": "[30]", "result": -0.404},
      {"measurement": "glycan array binding signal (z-score)", "setting": "[31]", "result": -0.676},
      {"measurement": "glycan array binding signal (z-score)", "setting": "Neu5Gc(a2-3)Gal(b1-4)Glc", "result": -0.526},
      {"measurement": "glycan array binding signal (z-score)", "setting": "[32]", "result": -0.644},
      {"measurement": "glycan array binding signal (z-score)", "setting": "[33]", "result": -0.491},
      {"measurement": "glycan array binding signal (z-score)", "setting": "[34]", "result": -0.444},
      {"measurement": "glycan array binding signal (z-score)", "setting": "Neu5Gc(a2-6)GalNAc", "result": -0.397}
    ]}
  ]
}
